Consider 19 compounds from PubChem BioAssay (NCATS).

“And” between values parts separate entries of the source, which are not always exact repeats. Equal entries are not always repeated. The list shows a part of the results. Shown are side measurements of this screen, not its main read-out; they come without a call. Most of these compounds were active or inconclusive in the main read-out, so they are no random draw. The note in brackets gives the kind of curve behind each potency; many fits are weak.

What is called AC50 is the midpoint of the concentration-response curve, whichever way the signal moves.

This experiment can be described thus: qHTS Assay for Lipid Storage Modulators (AID 1519). The conditions noted are these: Drosophila S3 cells, BODIPY lipid droplet/cell ratio, laser cytometry, cells loaded with oleic acid. A digest of the protocol: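 Cells seeded at 5,000 per well were treated with compounds over a concentration series and loaded with oleic acid (400 uM, as added). Lipid droplet fluorescence (488 nm excitation, 500-530 nm channel) was read by laser-scanning cytometry and normalized to 20 uM Triacsin C.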
On the technique in general: Quantitative high-throughput screening tests each substance at several concentrations.

[1] abbreviates: measured here: cell count channel max response.
Setting [2] is: measured here: cell number channel AC50.
[3] abbreviates: measured here: lipid (BODIPY) channel AC50.
Setting [4] is: measured here: lipid channel max response.
Tags give direction and shape of the fitted curve.

With `COc1ccc(Oc2ncc3nc(-c4cn(C)c5ccccc45)c(=O)n(C)c3n2)cc1`, the max response by setting is: under setting [1], 40%; under setting [4], 48.3%. Besides, the AC50 under setting [2] was 7.94 µM [rising, partial curve, poor fit] and the AC50 under setting [3] was 7.08 µM [rising, partial curve].
For `Cc1cnc(CNc2nc(-c3c(C)noc3C)nc3ccccc23)cn1`, the max response was determined as 17.7% under setting [1] and 25.3% under setting [4]. Besides, the AC50 is, setting by setting: under setting [2], 0.794 µM [rising, full curve]; under setting [3], 0.794 µM [rising, full curve].
Regarding `O=C(Oc1ccccc1)N1CCC2(CC1)CCN(c1cccc(-c3ccccc3)c1)CC2`, the max response under setting [1] is -40.1% and the max response under setting [4] was -102%. The AC50 is 39.8 µM [falling, single point] under setting [2] and 39.8 µM [falling, single point] under setting [3].
Take `CNc1ncnc2ccc(-c3cccc(OC)c3)cc12`: the max response under setting [1] was -32.2% and the max response under setting [4] is -43.4%. Moreover, the AC50 runs as follows: under setting [2], 39.8 µM [falling, single point]; under setting [3], 39.8 µM [falling, single point].
Regarding `CC[C@]1(c2ncc[nH]2)Cc2ccccc2O1`, the max response worked out at 38.5% under setting [1] and 59.9% under setting [4]. The AC50 is, setting by setting: under setting [2], 35.5 µM [rising, single point]; under setting [3], 35.5 µM [rising, partial curve, poor fit].
Consider `CN1CCN(c2cc(-c3ccccc3Cl)ncn2)CC1`, for which the max response by setting is: under setting [1], 30.7%; under setting [4], 38.1%. Further, the AC50 under setting [2] is 6.31 µM [rising, partial curve, poor fit] and the AC50 under setting [3] is 12.6 µM [rising, partial curve, poor fit].
For the compound `COc1c2ccoc2nc2c(OC)c(OCC(O)C(C)(C)O)ccc12` (stereo unspecified), the max response runs as follows: under setting [1], 137%; under setting [4], 177%. For the same compound, the AC50 by setting is: under setting [2], 2 µM [rising, full curve]; under setting [3], 2.24 µM [rising, full curve].
As to `COc1ccc(/C=C\C(=O)Nc2ccccc2C(=O)O)cc1OC`, the max response under setting [1] stood at 44.7% and the max response under setting [4] was determined as 62.4%. Also, the AC50 was 1.58 µM [rising, full curve, poor fit] under setting [2] and 1.41 µM [rising, full curve, poor fit] under setting [3].
Take `COC1/C=C/OC2(C)Oc3c(C)c(O)c4c(O)c(c(/C=N/N5CCN(C)CC5)c(O)c4c3C2=O)NC(=O)/C(C)=C/C=C/C(C)C(O)C(C)C(O)C(C)C(OC(C)=O)C1C` (stereo unspecified): the max response is 37.3% under setting [1] and 43.2% under setting [4]. Moreover, the half-maximal activity concentration (AC50) runs as follows: under setting [2], 7.08 µM [rising, full curve, poor fit]; under setting [3], 6.31 µM [rising, full curve, poor fit].
Take `COc1ccc(CNc2ncncc2-c2cccc(NS(C)(=O)=O)c2)c(OC)c1`: the max response runs as follows: under setting [1], 43.1%; under setting [4], 52.9%. In addition, the AC50 under setting [2] is 6.31 µM [rising, partial curve, poor fit] and the AC50 under setting [3] is 7.08 µM [rising, partial curve, poor fit].
In the case of `CCCCCC[C@@H]([C@@H](C)O)n1cnc2c(N)ncnc21`, the max response by setting is: under setting [1], 52.3% and -35.8%; under setting [4], 59.1% and -35.2%. In addition, the AC50 reads like this: under setting [2], 14.1 µM [rising, partial curve, poor fit]; under setting [3], 14.1 µM [rising, partial curve, poor fit].
As to `Cc1cccc(CNc2ncncc2-c2ccccc2CN(C)C)c1`, the max response is, setting by setting: under setting [1], 35%; under setting [4], 41.6%. The half-maximal activity concentration (AC50) by setting is: under setting [2], 3.98 µM [rising, full curve]; under setting [3], 3.98 µM [rising, full curve].
For `COc1ccc2[nH]cc(CCNc3cc(-c4ccccc4C)ncn3)c2c1`, the max response is, setting by setting: under setting [1], 17.5%; under setting [4], 16.8%. For the same compound, the AC50 is 1.26 µM [rising, full curve, poor fit] under setting [2] and 1.41 µM [rising, full curve, poor fit] under setting [3].
Consider `COc1ccc(-n2c(=O)c(C)nc3cnc(Oc4cccc(Cl)c4)nc32)cc1`, for which the max response reads like this: under setting [1], 38.3%; under setting [4], 53.5%. Besides, the AC50 was 0.2 µM [rising, full curve, poor fit] under setting [2] and 0.0794 µM [rising, full curve, poor fit] under setting [3].
Turning to `COc1ccc2c(c1OC)C(=O)O[C@H]2C1c2c(cc3c(c2OC)OCO3)CCN1C` (stereo partly specified), the max response was determined as 103% under setting [1] and 131% under setting [4]. Moreover, the AC50 under setting [2] is 3.16 µM [rising, partial curve, poor fit] and the AC50 under setting [3] was 3.16 µM [rising, partial curve, poor fit].
For `CN(C)c1ncc2nc(CCc3ccccc3)c(=O)n(Cc3cccs3)c2n1`, the max response stood at 38% under setting [1] and 47.1% under setting [4]. Also, the AC50 was 1.41 µM [rising, full curve] under setting [2] and 1.26 µM [rising, full curve] under setting [3].
Turning to `O=c1cnc2cnc(N3CCOCC3)nc2n1Cc1ccc(F)cc1`, the max response was 20.5% under setting [1] and 14.4% under setting [4]. In addition, the half-maximal activity concentration (AC50) by setting is: under setting [2], 1.41 µM [rising, full curve, poor fit]; under setting [3], 1.26 µM [rising, full curve].
As to `COc1ccc(C(=O)N2CCC3(CCN(C(=O)Nc4ccccc4)CC3)CC2)cc1`, the max response was 27.1% under setting [1] and 40.7% under setting [4]. Besides, the AC50 under setting [2] is 1 µM [rising, full curve, poor fit] and the AC50 under setting [3] was 0.794 µM [rising, full curve].
Regarding `Cc1cccc(CNc2ccnc(-c3ccccc3Cl)n2)c1`, the max response runs as follows: under setting [1], 24.5%; under setting [4], 27.2%. In addition, the AC50 by setting is: under setting [2], 1.12 µM [rising, partial curve, poor fit]; under setting [3], 1.12 µM [rising, full curve, poor fit].
